# The campaign covered roughly 3,200 compounds. About 300 (9.4%) showed activity. Only a part is listed here, and it is no random draw.
# Tested on: A673/TR/shEF
# Test: cell viability (LOESS-normalised, relative to median of negative controls) (log2 ratio); higher = more viable cells (less compound effect), active = hit call of the paper (over 3 MAD below the median)
# Conditions: treatment time: 72 h
# Method in brief: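 A673/TR/shEF Ewing sarcoma cells were plated at 1,500 per well in 384-well plates and cultured with or without doxycycline, added 24 h before compounds, to induce EWS-FLI1 shRNA knockdown. Library compounds at two or more concentrations, alongside DMSO controls, were applied for three days. Cell viability was measured by CellTiter-Glo luminescence on an Envision reader. Readings were LOESS-corrected per plate, divided by the median of negative controls and log2-transformed, and hits were wells lying at least three median absolute deviations from the median of all screened wells.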
# [1] = 0.25 µM, library screen: screen1, EWS-FLI1 expression: high (no doxycycline)
# [2] = 0.25 µM, library screen: screen1, EWS-FLI1 expression: low (doxycycline-induced shRNA knockdown)
# [3] = 2.5 µM, library screen: screen1, EWS-FLI1 expression: high (no doxycycline)
# [4] = 2.5 µM, library screen: screen1, EWS-FLI1 expression: low (doxycycline-induced shRNA knockdown)
# [5] = 0.25 µM, library screen: screen2, EWS-FLI1 expression: high (no doxycycline)
# [6] = 0.25 µM, library screen: screen2, EWS-FLI1 expression: low (doxycycline-induced shRNA knockdown)
# [7] = 2.5 µM, library screen: screen2, EWS-FLI1 expression: high (no doxycycline)
# [8] = 2.5 µM, library screen: screen2, EWS-FLI1 expression: low (doxycycline-induced shRNA knockdown)
# [9] = 0.103 µM, library screen: screen3, EWS-FLI1 expression: high (no doxycycline)
# [10] = 0.103 µM, library screen: screen3, EWS-FLI1 expression: low (doxycycline-induced shRNA knockdown)
# [11] = 0.308 µM, library screen: screen3, EWS-FLI1 expression: high (no doxycycline)
# [12] = 0.308 µM, library screen: screen3, EWS-FLI1 expression: low (doxycycline-induced shRNA knockdown)
# [13] = 0.926 µM, library screen: screen3, EWS-FLI1 expression: high (no doxycycline)
# [14] = 0.926 µM, library screen: screen3, EWS-FLI1 expression: low (doxycycline-induced shRNA knockdown)
# [15] = 2.8 µM, library screen: screen3, EWS-FLI1 expression: high (no doxycycline)
# [16] = 2.8 µM, library screen: screen3, EWS-FLI1 expression: low (doxycycline-induced shRNA knockdown)
# [17] = 8.3 µM, library screen: screen3, EWS-FLI1 expression: high (no doxycycline)
# [18] = 8.3 µM, library screen: screen3, EWS-FLI1 expression: low (doxycycline-induced shRNA knockdown)
# [19] = 25 µM, library screen: screen3, EWS-FLI1 expression: high (no doxycycline)
# [20] = 25 µM, library screen: screen3, EWS-FLI1 expression: low (doxycycline-induced shRNA knockdown)
smiles,measurement,setting,value
C=CC(C)(CCC1C(=C)CC(OC(C)=O)C2C(C)(C)CCCC12C)OC(C)=O (stereo unspecified),cell viability (log2),[1],inactive: 0.025
same,cell viability (log2),[2],inactive: 0.066
same,cell viability (log2),[3],inactive: 0.163
same,cell viability (log2),[4],inactive: -0.0558
CCN(CC)CCOC(=O)C(c1ccccc1)c1ccccc1,cell viability (log2),[1],inactive: 0.0956
same,cell viability (log2),[2],inactive: 0.039
same,cell viability (log2),[3],inactive: 0.124
same,cell viability (log2),[4],inactive: 0.0934
O=C1C(=O)c2ccccc2C(O)=C1C1CCC(c2ccc(Cl)cc2)CC1 (stereo unspecified),cell viability (log2),[1],inactive: 0.135
same,cell viability (log2),[2],inactive: 0.147
same,cell viability (log2),[3],inactive: 0.118
same,cell viability (log2),[4],inactive: 0.164
CC(=O)O[C@H]1CC[C@@]2(C)C(CC[C@]3(C)C2C(=O)C=C2C4[C@@H](C)[C@H](C)CC[C@]4(C(=O)O)CC[C@]23C)C1(C)C (stereo partly specified),cell viability (log2),[1],inactive: 0.0834
same,cell viability (log2),[2],inactive: -0.0467
same,cell viability (log2),[3],inactive: 0.137
same,cell viability (log2),[4],inactive: -0.0143
N[C@@H](Cc1ccc(O)c(I)c1)C(=O)O,cell viability (log2),[5],inactive: 0.00814
same,cell viability (log2),[6],inactive: 0.0104
same,cell viability (log2),[7],inactive: 0.0218
same,cell viability (log2),[8],inactive: 0.0348
CO[C@H]1C[C@H](O[C@H]2[C@H](C)[C@@H](O[C@@H]3O[C@H](C)C[C@H](N(C)C)[C@H]3O)[C@@H](C)C[C@@]3(CO3)C(=O)[C@H](C)[C@@H](O)[C@@H](C)[C@@H](C)OC(=O)[C@@H]2C)O[C@@H](C)[C@@H]1O,cell viability (log2),[1],inactive: 0.114
same,cell viability (log2),[2],inactive: 0.116
same,cell viability (log2),[3],inactive: 0.209
same,cell viability (log2),[4],inactive: 0.0933
Nc1ccc(S(=O)(=O)Nc2ccccn2)cc1,cell viability (log2),[1],inactive: 0.0477
same,cell viability (log2),[2],inactive: 0.097
same,cell viability (log2),[3],inactive: 0.18
same,cell viability (log2),[4],inactive: 0.163
CN1[C@@H]2CC[C@H]1CC(OC(c1ccccc1)c1ccccc1)C2 (stereo partly specified),cell viability (log2),[5],inactive: 0.216
same,cell viability (log2),[6],inactive: 0.119
same,cell viability (log2),[7],inactive: 0.0438
same,cell viability (log2),[8],inactive: 0.118
Nc1ncnc2c1ncn2C1CCCO1 (stereo unspecified),cell viability (log2),[5],active: -0.183
same,cell viability (log2),[6],active: -0.136
same,cell viability (log2),[7],active: -0.771
same,cell viability (log2),[8],active: -0.568
Nc1ccn([C@@H]2O[C@H](CO)[C@@H](O)[C@@H]2O)c(=O)n1,cell viability (log2),[9],active: -0.206
same,cell viability (log2),[10],inactive: -0.0158
same,cell viability (log2),[1],inactive: 0.0194
same,cell viability (log2),[2],inactive: 0.174
same,cell viability (log2),[5],active: -0.179
same,cell viability (log2),[6],inactive: 0.162
same,cell viability (log2),[11],inactive: -0.0966
same,cell viability (log2),[12],inactive: 0.00929
same,cell viability (log2),[13],active: -0.377
same,cell viability (log2),[14],inactive: -0.00593
same,cell viability (log2),[3],active: -0.85
same,cell viability (log2),[4],inactive: 0.0115
same,cell viability (log2),[7],active: -1.17
same,cell viability (log2),[8],inactive: -0.0511
same,cell viability (log2),[15],active: -0.966
same,cell viability (log2),[16],inactive: -0.023
same,cell viability (log2),[17],active: -1.5
same,cell viability (log2),[18],active: -0.184
same,cell viability (log2),[19],active: -2.24
same,cell viability (log2),[20],active: -0.544
O=S(=O)(c1ccc(Br)c2ccccc12)n1ccnc1,cell viability (log2),[1],inactive: 0.091
same,cell viability (log2),[2],inactive: 0.0921
same,cell viability (log2),[3],inactive: 0.103
same,cell viability (log2),[4],inactive: 0.117
CN(C)CCCN1c2ccccc2Sc2ccc(Cl)cc21,cell viability (log2),[9],inactive: 0.0728
same,cell viability (log2),[10],inactive: 0.128
same,cell viability (log2),[1],inactive: 0.1
same,cell viability (log2),[2],inactive: 0.155
same,cell viability (log2),[5],inactive: 0.141
same,cell viability (log2),[6],inactive: 0.1
same,cell viability (log2),[11],inactive: 0.122
same,cell viability (log2),[12],inactive: 0.0127
same,cell viability (log2),[13],inactive: 0.0627
same,cell viability (log2),[14],inactive: 0.015
same,cell viability (log2),[3],inactive: 0.206
same,cell viability (log2),[4],inactive: 0.191
same,cell viability (log2),[7],inactive: 0.129
same,cell viability (log2),[8],inactive: 0.0664
same,cell viability (log2),[15],inactive: -0.0176
same,cell viability (log2),[16],inactive: 0.0383
same,cell viability (log2),[17],inactive: 0.101
same,cell viability (log2),[18],inactive: 0.0471
same,cell viability (log2),[19],inactive: -0.0174
same,cell viability (log2),[20],inactive: 0.0242
CCOC(=O)c1c(C)cc(O)cc1O,cell viability (log2),[1],inactive: 0.0788
same,cell viability (log2),[2],inactive: 0.0693
same,cell viability (log2),[3],inactive: 0.0357
same,cell viability (log2),[4],inactive: 0.0819
CC(C)Cn1c(=O)n(C)c(=O)c2[nH]cnc21,cell viability (log2),[1],inactive: -0.0223
same,cell viability (log2),[2],inactive: -0.0167
same,cell viability (log2),[5],inactive: 0.0628
same,cell viability (log2),[6],inactive: 0.118
same,cell viability (log2),[3],inactive: 0.0644
same,cell viability (log2),[4],inactive: 0.0361
same,cell viability (log2),[7],inactive: 0.0149
same,cell viability (log2),[8],inactive: 0.112
CCCCOc1cc(CC2CNC(=O)N2)ccc1OC (stereo unspecified),cell viability (log2),[5],inactive: 0.267
same,cell viability (log2),[6],inactive: 0.169
same,cell viability (log2),[7],inactive: 0.152
same,cell viability (log2),[8],inactive: 0.0628
COc1cc([C@@H]2c3cc4c(cc3[C@@H](O[C@@H]3O[C@@H]5CO[C@@H](c6cccs6)O[C@H]5[C@H](O)[C@H]3O)[C@H]3COC(=O)[C@H]23)OCO4)cc(OC)c1O,cell viability (log2),[9],inactive: -0.0319
same,cell viability (log2),[10],inactive: -0.00588
same,cell viability (log2),[1],active: -0.797
same,cell viability (log2),[2],active: -0.349
same,cell viability (log2),[11],active: -0.326
same,cell viability (log2),[12],inactive: -0.0159
same,cell viability (log2),[13],active: -0.931
same,cell viability (log2),[14],active: -0.262
same,cell viability (log2),[3],active: -1.74
same,cell viability (log2),[4],active: -0.557
same,cell viability (log2),[15],active: -1.32
same,cell viability (log2),[16],active: -0.472
same,cell viability (log2),[17],active: -2.12
same,cell viability (log2),[18],active: -0.477
same,cell viability (log2),[19],active: -3.07
same,cell viability (log2),[20],active: -0.784
CON,cell viability (log2),[1],inactive: 0.0595
same,cell viability (log2),[2],inactive: 0.0208
same,cell viability (log2),[3],inactive: 0.11
same,cell viability (log2),[4],inactive: -0.0161

# Source: the supplement of paper PMC6089552
